Series [1] concerns the target T1, MBP-Hof1-FL-6His (S. cerevisiae, UniProt Q05080 1-669).
T1 sequence (looked up): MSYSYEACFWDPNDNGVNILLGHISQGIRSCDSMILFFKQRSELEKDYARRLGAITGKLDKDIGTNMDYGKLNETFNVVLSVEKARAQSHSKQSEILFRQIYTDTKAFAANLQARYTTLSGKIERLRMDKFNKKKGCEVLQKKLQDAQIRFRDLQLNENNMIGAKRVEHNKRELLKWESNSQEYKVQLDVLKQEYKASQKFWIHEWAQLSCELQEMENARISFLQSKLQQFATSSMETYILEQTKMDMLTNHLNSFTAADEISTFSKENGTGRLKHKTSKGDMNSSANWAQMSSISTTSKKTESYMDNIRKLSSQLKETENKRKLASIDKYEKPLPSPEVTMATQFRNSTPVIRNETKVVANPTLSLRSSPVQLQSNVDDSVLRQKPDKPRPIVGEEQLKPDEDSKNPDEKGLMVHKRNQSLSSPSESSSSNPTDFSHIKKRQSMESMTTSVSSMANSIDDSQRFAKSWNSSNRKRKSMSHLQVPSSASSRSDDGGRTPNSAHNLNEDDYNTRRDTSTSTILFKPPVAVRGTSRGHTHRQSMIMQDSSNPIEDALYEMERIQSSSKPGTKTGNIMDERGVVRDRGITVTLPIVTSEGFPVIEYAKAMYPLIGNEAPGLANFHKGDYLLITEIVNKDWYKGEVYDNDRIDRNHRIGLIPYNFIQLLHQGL
Description: negative-stain single-particle EM.

Series [2] concerns the molecule itself. Put plainly: negative-stain single-particle EM.

B1: 6His-Bnr1 FH1-FH2-C (residues 757-1,375) (domain or fragment)
chain: not shown
Regarding B1, in series [1], the binding result is “binds”. Further, the “stoichiometry N” value in series [2] stood at 2.

Values taken from article PMC6168263 (The Journal of Cell Biology, 2018).
